Measured values from PMC6919601, “Identification of Plasmodium dipeptidyl aminopeptidase allosteric inhibitors by high throughput screening” (PLoS ONE, 2019).
The campaign covered roughly 110,000 compounds. About 230 (0.21%) showed an effect of 50% or more. This is one part of the list.

molecular target: DPAP1 (Plasmodium falciparum, UniProt Q8IIJ9); assay: primary screen, percent inhibition; read by cleavage of a fluorogenic dipeptide substrate; higher = more effect of the substance; parameters: species or system P. falciparum D10 trophozoite lysates; single well
Sequence (Q8IIJ9 whole entry, looked up): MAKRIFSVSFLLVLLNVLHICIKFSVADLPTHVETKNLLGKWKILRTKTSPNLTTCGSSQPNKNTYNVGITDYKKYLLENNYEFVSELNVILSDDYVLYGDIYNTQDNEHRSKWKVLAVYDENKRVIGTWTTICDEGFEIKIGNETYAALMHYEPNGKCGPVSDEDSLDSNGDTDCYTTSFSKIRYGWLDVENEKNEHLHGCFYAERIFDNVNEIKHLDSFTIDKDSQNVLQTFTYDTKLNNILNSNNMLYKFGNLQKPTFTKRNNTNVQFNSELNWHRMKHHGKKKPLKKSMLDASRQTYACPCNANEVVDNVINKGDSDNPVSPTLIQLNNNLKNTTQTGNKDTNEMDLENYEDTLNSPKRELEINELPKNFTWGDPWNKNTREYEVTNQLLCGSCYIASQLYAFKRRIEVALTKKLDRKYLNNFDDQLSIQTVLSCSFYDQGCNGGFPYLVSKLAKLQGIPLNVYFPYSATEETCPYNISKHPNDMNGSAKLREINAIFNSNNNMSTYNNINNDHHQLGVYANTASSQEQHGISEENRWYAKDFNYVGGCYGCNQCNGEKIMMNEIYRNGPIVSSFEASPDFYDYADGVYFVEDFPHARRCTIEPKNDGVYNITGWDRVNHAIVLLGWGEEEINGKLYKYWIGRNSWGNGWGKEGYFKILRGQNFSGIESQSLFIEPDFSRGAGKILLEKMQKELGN
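Further: 30 min substrate incubation versus DMSO and 10 µM JCP410 controls.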

Row | Structure (SMILES) | % Inhibition @ 10 uM [%]
1 | O=C(Nc1ccccc1NC(=O)c1ccncc1)c1ccncc1 | 0.13
2 | CCOc1ccc(CCNC(=O)C2CC(=O)OC2c2ccc(OC)c(OC)c2)cc1 (stereo not drawn) | -6.52
3 | Cc1ccc(N(CC(=O)NCc2ccncc2)S(=O)(=O)c2ccc(F)cc2)cc1 | -0.67
4 | COc1ccc(NC(=O)C2=C(C)Nc3nc(-c4ccccc4)nn3C2c2ccncc2)cc1 (stereo not drawn) | -7.17
5 | O=C(NCc1ccc2c(c1)OCO2)C1CCCN(S(=O)(=O)c2cccnc2)C1 (stereo not drawn) | 4.01
6 | COc1ccc2[nH]c3c(=O)n(CCCC(=O)NCC4CCCO4)c(=S)[nH]c3c2c1 (stereo not drawn) | -7.65
7 | CCOc1cc(C2C3=C(O)CCCC3=NC(C)=C2C(=O)OC)ccc1O (stereo not drawn) | 5.7
8 | Cc1ccccc1-n1c(O)cc(=O)[nH]c1=S | 2.41
9 | CCOC(=O)NCc1nc2nc(C)cc(C(F)(F)F)n2n1 | 2.84
10 | COc1cc2c(cc1OC)CN(Cc1ccc(Br)o1)CC2 | 3.01
11 | CC(C)Oc1ccc(C(=O)N(Cc2ccc(Cl)cc2)Cc2ccco2)cc1 | -0.45
12 | O=C(CCN1C(=O)S/C(=C\c2ccc(Cl)cc2)C1=O)N1CCOCC1 | 4.1
13 | CS(=O)(=O)C1=NN2C(=N)/C(=C\c3cccc4ccccc34)C(=O)N=C2S1 | -1.58
14 | COC(=O)C1=C(O)/C(=C/c2cccc(OC)c2O)N=C1C | 0.131
15 | O=C(Nc1cccnc1)c1cc(-c2ccc(O)cc2)on1 | 0.723
16 | O=C(NCCc1ccccc1)c1cc(F)c(F)cc1Cl | -5.36
17 | O=C(Nc1ccc(F)c(Cl)c1)c1cc2n(n1)C(C(F)(F)F)CC(c1ccco1)N2 (stereo not drawn) | -4.16
18 | CCCCC1(C)OC(=O)C(=Cc2ccc(SC)cc2)C(=O)O1 (stereo not drawn) | 2.84
19 | Fc1ccc(N2N=C(c3cccs3)CC2c2ccccc2C(F)(F)F)cc1 (stereo not drawn) | -1.59
20 | COc1ccccc1CC(=O)Nc1ccc2c(c1)C(=O)NC2=O | 0.993
21 | N#Cc1cc2c(=O)n3ccccc3nc2n(Cc2ccco2)c1=O | 2.73
22 | CCn1c(=N)n(CCc2ccccc2)c2ccccc21 | -6.65
23 | CC1(C)Cc2c(sc(NC(=O)c3ccc(F)cc3)c2C#N)C(C)(C)N1 | 3.59
24 | CCC(Oc1ccccc1)C(=O)NC(C)C1CC2CCC1C2 (stereo not drawn) | -3.97

Row | Structure (SMILES) | % Inhibition @ 10 uM [%]
25 | O=C(Nc1ccc2ccccc2c1)c1ccc(Cl)s1 | 2.7
26 | O=C(O)CNS(=O)(=O)c1ccc(C(=O)O)cc1 | 0.565
27 | O=C(O)c1ccc(CNCc2cccc(OCc3ccccc3)c2)cc1 | 1.42
28 | C=CCc1cccc2cc(C(=O)OCC)c(=O)oc12 | -2.51
29 | Cc1ccc(NC(=O)COc2ccc(Cl)cc2)c(C)c1 | -3.94
30 | Cc1ccc(Nc2nc(Cl)nc(NCc3ccccc3)n2)cc1 | -6.52
31 | Cc1ccccc1C1=N/C(=C2/OC(=O)c3ccccc32)C(=O)O1 | -2.27
32 | COc1ccc(C(=O)C2=C(O)C(=O)N(c3cc(C)on3)C2c2ccc(C(C)(C)C)cc2)cc1OC (stereo not drawn) | 1.05
33 | Cn1nc(-c2ccccc2F)c2cc(C(=O)NCc3ccc4c(c3)OCO4)sc21 | 0.317
34 | CCN(Cc1ccccc1)C(=O)c1cccc([N+](=O)[O-])c1C | -1.22
35 | CC1=NN(C(=O)c2ccc(Cn3nc(C)cc3C)o2)C(O)(C(F)(F)F)C1 (stereo not drawn) | 2.08
36 | CC(C)C[C@H](NC(=O)c1ccccc1)C(=O)NC1CCN(Cc2ccccc2)C1 (stereo partly drawn) | -4.82
37 | COc1ccc(C2CC(c3c(O)cc(C)oc3=O)=Nc3ccccc3S2)cc1O (stereo not drawn) | 3.31
38 | Cc1cc(C)c2oc(C(=O)NCc3ccccc3)cc(=O)c2c1 | -6.98
39 | Cc1cc(NS(=O)(=O)c2ccc(NC(=O)C(C)Oc3ccc(F)cc3)cc2)nc(C)n1 (stereo not drawn) | -5.14
40 | Cc1nc(C)c(-c2ccc(SCC(=O)NC3CCCC3)nn2)s1 | -2.26
41 | CCc1c(C)nc(N)nc1OCC(F)(F)C(F)F | -3.27
42 | Fc1ccc(N2CCN(Cc3ccc(Br)o3)CC2)cc1 | -1.92
43 | CCN(CC)S(=O)(=O)c1ccc(C(=O)OCCNC2=NS(=O)(=O)c3ccccc32)cc1 | -2.14
44 | COc1ccc2c(c1)nc(SCC(C)O)n2C (stereo not drawn) | 15.6
45 | O=C(O)CCc1nc2cccnc2n1Cc1cccs1 | 4.74
46 | Cc1ccccc1Cn1cc(NC(=O)c2cc(C3CC3)on2)cn1 | -4.43
47 | O=C(NCc1ccco1)c1cccc(S(=O)(=O)N2CC(c3ccccc3)CC2=O)c1 (stereo not drawn) | -2.63
48 | CC1CCc2c(sc(NC(=O)CCc3ccccc3)c2C(N)=O)C1 (stereo not drawn) | -7.9
